# In all, about 310,000 compounds went through this assay and about 2,200 (0.71%) showed an effect of 50% or more. Effects have a minus sign here. The list shows a part of the results.
# Target: human ether-à-go-go-related gene (hERG) potassium channel (human, UniProt Q12809)
# Experiment: primary screen, population patch clamp on CHO cells stably expressing hERG
# Chain of human ether-à-go-go-related gene (hERG) potassium channel (Q12809 whole entry, looked up): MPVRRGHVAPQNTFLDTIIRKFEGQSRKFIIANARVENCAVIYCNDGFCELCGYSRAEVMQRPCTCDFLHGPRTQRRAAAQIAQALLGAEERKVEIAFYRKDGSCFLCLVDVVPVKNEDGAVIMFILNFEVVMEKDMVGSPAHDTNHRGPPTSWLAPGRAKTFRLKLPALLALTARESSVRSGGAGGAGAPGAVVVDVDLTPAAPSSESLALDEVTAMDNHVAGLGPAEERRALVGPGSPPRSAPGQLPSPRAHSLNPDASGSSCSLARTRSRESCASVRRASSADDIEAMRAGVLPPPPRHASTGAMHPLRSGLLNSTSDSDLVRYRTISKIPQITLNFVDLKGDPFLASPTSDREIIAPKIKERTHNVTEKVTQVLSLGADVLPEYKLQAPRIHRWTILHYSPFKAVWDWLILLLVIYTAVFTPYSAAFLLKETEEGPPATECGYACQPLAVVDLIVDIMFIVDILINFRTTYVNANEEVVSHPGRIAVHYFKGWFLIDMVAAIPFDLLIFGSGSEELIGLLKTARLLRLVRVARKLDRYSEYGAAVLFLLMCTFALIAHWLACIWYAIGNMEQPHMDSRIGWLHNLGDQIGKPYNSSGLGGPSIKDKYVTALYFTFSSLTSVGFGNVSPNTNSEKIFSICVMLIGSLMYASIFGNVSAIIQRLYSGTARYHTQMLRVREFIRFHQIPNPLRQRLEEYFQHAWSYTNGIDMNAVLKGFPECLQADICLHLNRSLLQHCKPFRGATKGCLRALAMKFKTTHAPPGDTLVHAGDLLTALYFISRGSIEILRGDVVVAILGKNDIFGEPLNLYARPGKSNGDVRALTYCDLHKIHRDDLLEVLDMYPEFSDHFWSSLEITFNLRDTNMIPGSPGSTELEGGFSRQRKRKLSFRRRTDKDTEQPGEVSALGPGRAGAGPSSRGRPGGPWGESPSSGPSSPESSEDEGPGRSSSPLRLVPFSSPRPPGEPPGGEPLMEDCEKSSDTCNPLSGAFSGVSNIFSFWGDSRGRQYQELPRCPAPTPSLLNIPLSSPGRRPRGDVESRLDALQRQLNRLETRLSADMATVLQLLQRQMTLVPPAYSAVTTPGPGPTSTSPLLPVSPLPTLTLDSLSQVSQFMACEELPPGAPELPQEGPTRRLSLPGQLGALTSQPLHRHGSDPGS
row,Compound,"hERG current change (%, negative = inhibition) at 1uM"
1,COc1ccc(NC(=O)Nc2nc(C)cc(C)n2)c(OC)c1,10.1%
2,CSc1ccccc1C(=O)C1CCCN(C(=O)CCN2CCCO2)C1 (centres unmarked),5.56%
3,COc1cc(/C=C/c2cccc[n+]2C)ccc1OCC(=O)Nc1cccc(Cl)c1.[I-],4.57%
4,O=C(C(=O)N1CCCC1CO)N1CCCC1CO (centres unmarked),11.3%
5,Cc1ccc(N2CC(C(=O)OCC(=O)c3ccc([N+](=O)[O-])cc3)CC2=O)cc1 (centres unmarked),-2.98%
6,O=[N+]([O-])c1ccc(COP(=O)([O-])OCc2ccc([N+](=O)[O-])cc2)cc1.[Na+],2.35%
7,CCOC(=O)C(NCCc1ccccc1F)(NC(=O)CC)C(F)(F)F (centres unmarked),4.35%
8,CCN(CC)CCCNc1nnc(C)c(=O)[nH]1,6.17%
9,COc1ccc(Cl)cc1NC(=O)CCc1nnc2ccc(N3CCN(C)CC3)nn12,10.2%
10,O=C(O)c1ccc(NCc2cccs2)cc1,11.3%
11,O=C(O)CCC(=O)Nc1cccc(C(=O)Nc2ccc(Br)cc2)c1,11.9%
12,COc1ccc(CN2CCc3ccccc3C2)c(OC)c1,-6.81%
13,O=C(NCC(c1cccs1)N1CCOCC1)c1cn(-c2ccccc2)nc1-c1ccc(Cl)cc1 (centres unmarked),5.28%
14,CCOC(=O)N1CCN(CCC(=O)Nc2ccc(OC)cc2OC)CC1,3.55%
15,Cc1ccccc1C(=O)NCCCNC(=O)c1ccco1,16.8%
16,COc1ccc(NC(=O)C2CCCN(S(=O)(=O)c3cccc4nonc34)C2)cc1 (centres unmarked),32.8%
17,CC(C)C(=O)Nc1nnc(Sc2ccc(N(C)C)cc2)s1,12.1%
18,COc1cc(OC)c(OC)cc1NC(=O)CC1COc2ccccc2O1 (centres unmarked),14.8%
19,O=C(CCCN1C(=O)c2ccccc2C1=O)NCc1ccc(F)cc1,4.89%

row,Compound,"hERG current change (%, negative = inhibition) at 1uM"
1,CCn1c(SCC(=O)Nc2nccs2)nnc1-c1ccco1,11.3%
2,CCc1c(C)sc(NC(=O)C2CCCO2)c1C#N (centres unmarked),2.69%
3,COc1ccc(C[C@H](N)C(=O)N[C@H]2[C@@H](O)[C@H](n3cnc4c(N(C)C)ncnc43)O[C@@H]2CO)cc1.Cl,0.716%
4,CCCCOCCCNS(=O)(=O)Cc1ccccc1,3.6%
5,CC(=O)Nc1nc2c(C)cc(NC(=O)C3CCCCC3)cc2s1,8.2%
6,Cc1ccc(NC(=O)Cn2ccnc2)cc1C,8.73%
7,O=C(c1cc2cc(Cl)ccc2[nH]1)N1CCN(C(=O)c2ccco2)CC1,1.45%
8,CC1=NN(c2ccccc2)C(=O)/C1=C/c1c(O)n(-c2ccc(F)c(Cl)c2)[nH]c1=O,7.59%
9,COc1ccccc1CCN=C(N)NS(=O)(=O)c1ccc(C)c(C)c1,17.6%
10,O=[N+]([O-])c1cc(C(F)(F)F)ccc1N1CCN(S(=O)(=O)c2ccc3ccccc3c2)CC1,10.9%
11,CC1CCCN(CCCNC(=O)C2CCCN(c3ncnc4c3nc3n4CCCCC3)C2)C1 (centres unmarked),7.17%
12,O=C(Oc1ccc(C(=S)N2CCOCC2)cc1)c1ccccc1,28.6%
13,CCCn1nc(NC(=O)C2CCCO2)c2cc3cccc(C)c3nc21 (centres unmarked),10.7%
14,O=C1NC(=O)N(c2ccc3c(c2)OCO3)C(=O)/C1=C\c1ccc(N2CCCCC2)o1,12.4%
15,Clc1ccccc1-c1nn2c(COc3ccccc3)nnc2s1,0.0671%
16,COc1ccc(NS(=O)(=O)c2cc(NC(=O)C3CCCO3)ccc2N2CCCCC2)cc1 (centres unmarked),9.85%
17,O=S(=O)(Nc1ccccn1)c1ccc(Cl)cc1,1.52%
18,CCc1cccc(CC)c1NC(=O)CN1C2CCCC1CC(NC(=O)Nc1cccc(OC)c1)C2 (centres unmarked),9.12%
19,Cn1c(SCCOc2cccc(Cl)c2)nnc1-c1ccncc1,-22.7%

row,Compound,"hERG current change (%, negative = inhibition) at 1uM"
1,Cc1cc(C(=O)Nc2ccncc2)c2ccccc2n1,14.8%
2,O=C(Nc1ccc(N2C(=O)C3C4C=CC(C4)C3C2=O)cc1)Nc1cccnc1 (centres unmarked),8.09%
3,COc1ccc(N2CCN(C(c3cc(OC)ccc3OC)c3nnnn3CC3CCCO3)CC2)cc1.Cl (centres unmarked),4.77%
4,C/C(=N\NC(=O)c1cc(Br)ccc1O)c1cccc(NC(=O)c2ccccc2F)c1,17.3%
5,COc1cc(C)c(CN2CCN(C(C)C(=O)NC(C)c3ccccc3)CC2)cc1OC (centres unmarked),7.88%
6,S=c1[nH]nc(-c2cc(-c3ccccc3)n[nH]2)n1/N=C/C=C/c1ccccc1,15.4%
7,COC(=O)CN1C(=S)N(c2ccc(F)cc2)C(=O)C1CC(=O)Nc1ccccc1 (centres unmarked),6.16%
8,COc1cccc(C2CC(c3ccccc3)=NN2S(=O)(=O)c2ccc(C)cc2)c1OC (centres unmarked),8.6%
9,O=C(CN1CCC(n2nnc3cc(C(F)(F)F)ccc32)CC1)Nc1ccc2c(c1)OCCO2,-0.172%
10,CCC1(C)Cc2c(sc3nc(SC)nc(N)c23)CO1 (centres unmarked),8.9%
11,CCOC(=O)C1=C(C)N(C)C(=S)N(C)C1c1ccc(OC)cc1 (centres unmarked),8.17%
12,COc1ccc(C(=O)OCc2ccccc2F)cc1S(=O)(=O)N1CCCC1,6.72%
13,CC(C)(C)OC(=O)NCc1ccc(CNC(=O)c2nc[nH]c2C(=O)N2CCc3ccccc3C2)cc1,4.61%
14,CCOc1cnn(-c2cc(Oc3ccc(C)cc3)ncn2)c(=O)c1Cl,3.88%
15,COc1ccccc1NC(=O)CNC(=O)c1ccccc1,5.61%
16,CC1CC(C)CN(CCCNC(=O)CC2Oc3ccccc3NC2=O)C1 (centres unmarked),-0.865%
17,O=C(Nc1nnc(COc2ccc(F)cc2)s1)Nc1ccccc1F,9.57%
18,O=C(Nc1ccc(Cl)cc1N1CCOCC1)C1CC1,15.1%

# From paper PMC4336329 (PLoS ONE, 2015)
